Read-outs that look alike come from different tables or passages of the source.
What was measured:
[1] = test system: Spontaneously Hypertensive Rats of Stroke Prone (SHRSP); assay: Scores of neurological symptoms after stroke onset in SHRSP; assay type: in vivo, rat
Method: Scores of neurological symptoms after stroke onset:
After stroke onset, the scores during 14 days were recorded for every animal, and the scores in the treated groups are compared with scores in the control group.

[2] = test system: Spontaneously Hypertensive Rats of Stroke Prone (SHRSP); assay: Hemorheology in SHRSP; assay type: in vivo, rat; settings: for effect on blood hemorheology indexes / blood viscosity: compared with the model group
Method: 1) After the last dose, the rats were fasted for 6 hours, and blood samples were collected by blood sampling in eyeground. After decollation, the whole brains of the rats were detached at ice trays for use.
2) Blood of 3 mL was dropped rapidly in a cuvette with 1 mL 0.074% heparin and mixed. The whole blood viscosity, plasma viscosity, red blood cell (RBC) aggregation index and RBC deformation index were determined with a hemorheology detector according to its specifications.
(§1) 2) Hemorheology: including whole blood viscosity, plasma viscosity, RBC aggregation index, RBC deformation index and platelet aggregation ratio.

[3] = test system: Spontaneously Hypertensive Rats of Stroke Prone (SHRSP); assay: Platelet aggregation ratio in SHRSP; assay type: in vivo, rat; settings: for effect on platelet aggregation ratio: compared with the model group
Method: 3) Blood of 2 mL was dropped rapidly in a cuvette with 0.2 mL 0.13 mol/L
Sodium citrate) and mixed. The mixture was centrifuged for 10 min at 1000 rpm and platelet aggregation ratio was determined with a platelet aggregation meter according to its specifications.
as §1

[4] = test system: Spontaneously Hypertensive Rats of Stroke Prone (SHRSP); assay: Brain water content in SHRSP; assay type: in vivo, rat; settings: (wet weight−dry weight)/wet weight×100%
Method: 6) The whole brain tissues were weighed one by one, dried in a vacuum over at 110±5° C. for 48 hours, and then weighed again.
5) Brain water content: according to the weights of whole brain tissue before and after taken into the vacuum oven, the data were applied to the following formula and calculated:
Brain water content=(wet weight−dry weight)/wet weight×100%

[5] = test system: TNF-α, IL-1β, ICAM-1, VCAM-1, iNOS, AQP-4; assay: Expression of TNF-α, IL-1β, ICAM-1, VCAM-1, iNOS and AQP-4 in ischemic cerebral tissue (FIG. 2); assay type: in vivo, rat; settings: 24 h after ischemia, 3 mg/kg, 10 mg/kg, 30 mg/kg in early stage of ischemia
Excerpt: B is a statistic chart that quantifies the expression of TNF-α, IL-1β, ICAM-1, VCAM-1, iNOS and AQP-4 with β-actin as internal standard.
With β-actin as internal standard, the expressions of TNF-α, IL-1β, ICAM-1, VCAM-1, iNOS, AQP-4 were quantified, and the inhibition effects of pinocembrin racemate on the above proteins were seen intuitively.

[6] = test system: Spontaneously Hypertensive Rats of Stroke Prone (SHRSP); settings: for NUMBER OF RATS After experiment: 10 before experiment; for effect on time of stroke onset (prophylaxis): compared with the model group

SMILES	RBC aggregation index ([2]; 3 mg/kg)	RBC deformation index ([2]; 3 mg/kg)	plasma specific viscosity ([2]; 3 mg/kg)	whole blood viscosity 5 (l/s) ([2]; 3 mg/kg)	whole blood viscosity 20 (l/s) ([2]; 3 mg/kg)	RBC aggregation index ([2]; 10 mg/kg)	RBC deformation index ([2]; 10 mg/kg)	plasma specific viscosity ([2]; 10 mg/kg)	whole blood viscosity 5 (l/s) ([2]; 10 mg/kg)	whole blood viscosity 20 (l/s) ([2]; 10 mg/kg)	RBC aggregation index ([2]; 30 mg/kg)	RBC deformation index ([2]; 30 mg/kg)	plasma specific viscosity ([2]; 30 mg/kg)	whole blood viscosity 5 (l/s) ([2]; 30 mg/kg)	whole blood viscosity 20 (l/s) ([2]; 30 mg/kg)	Change of platelet aggregation ([3]; 3 mg/kg)	Change of platelet aggregation ([3]; 10 mg/kg)	Brain water content ([4]; 3 mg/kg)	TIME OF STROKE ONSET ([6]; 3 mg/kg)	NUMBER OF RATS After experiment ([6]; 3 mg/kg)	also measured
O=C1CC(c2ccccc2)Oc2cc(O)cc(O)c21 (racemic) [Pinocembrin racemate, pinocembrin racemate]	8.84 ± 0.63	0.183 ± 0.028	2.17 ± 0.28	14.81 ± 2.13	4.66 ± 0.34	8.36 ± 1.39	0.219 ± 0.031	2.01 ± 0.49	12.01 ± 2.46	4.12 ± 0.57	7.84 ± 0.63	0.222 ± 0.028	1.99 ± 0.28	10.95 ± 1.30	3.89 ± 0.28	25.1 ± 3.0	23.8 ± 2.9	79.51 ± 0.42	40.1 ± 8.7 days	10	score of neurological symptoms after stroke onset ([1]; high dose (30 mg/kg/d), within 2-14 days after onset): below 1.6; score of neurological symptoms after stroke onset ([1]; middle dose (10 mg/kg/d), within 2-14 days after onset): < 2.3; effect on blood hemorheology indexes / blood viscosity [2]: decrease blood viscosity in a dose-dependent manner; Change of platelet aggregation ([3]; 30 mg/kg): 22.3 ± 3.5; effect on platelet aggregation ratio [3]: resist platelet aggregation in a dose-dependent manner; Brain water content ([4]; 10 mg/kg): 79.08 ± 0.67; Brain water content ([4]; 30 mg/kg): 78.67 ± 0.60; expression of adhesion molecules ICAM-1 and VCAM-1 in cerebral ischemic tissue [5]: inhibited the expression of TNF-α and IL-1β in some extents; effect on survival ratio after stroke (treatment) [6]: dose-dependently increase survival ratio after stroke; TIME OF STROKE ONSET ([6]; 10 mg/kg): 42.7 ± 7.2 days; NUMBER OF RATS After experiment ([6]; 10 mg/kg): 10; CAUSES OF DEATH: ischemic stroke (number of rats) ([6]; 30 mg/kg): Ischemic stroke: 1; TIME OF STROKE ONSET ([6]; 30 mg/kg): 43.9 ± 6.4 days; NUMBER OF RATS After experiment ([6]; 30 mg/kg): 9; effect on time of stroke onset (prophylaxis) [6]: delay the time of stroke onset in dose-dependent manner
O=C1C[C@H](c2ccccc2)Oc2cc(O)cc(O)c21 [(R)-pinocembrin]	8.50 ± 2.11	0.144 ± 0.405	2.60 ± 0.94	15.20 ± 1.82	5.06 ± 1.45	8.25 ± 2.41	0.184 ± 0.100	2.30 ± 0.63	14.39 ± 1.84	4.45 ± 0.71	8.12 ± 0.88	0.219 ± 0.104	2.09 ± 0.51	12.24 ± 3.16	4.28 ± 0.66	25.9 ± 1.7	25.4 ± 4.3	79.55 ± 0.55	37.7 ± 8.4 days	9	Change of platelet aggregation ([3]; 30 mg/kg): 23.9 ± 6.1; Brain water content ([4]; 10 mg/kg): 79.54 ± 0.53; Brain water content ([4]; 30 mg/kg): 79.00 ± 0.14; effect on survival ratio after stroke (treatment) [6]: has this activity only when administered by high dose; CAUSES OF DEATH: ischemic stroke (number of rats) ([6]; 3 mg/kg): ischemic stroke: 1; CAUSES OF DEATH: hemorrhagic stroke (number of rats) ([6]; 10 mg/kg): hemorrhagic stroke: 1; CAUSES OF DEATH: ischemic stroke (number of rats) ([6]; 10 mg/kg): ischemic stroke: 2; TIME OF STROKE ONSET ([6]; 10 mg/kg): 39.8 ± 7.8 days; NUMBER OF RATS After experiment ([6]; 10 mg/kg): 7; CAUSES OF DEATH: ischemic stroke (number of rats) ([6]; 30 mg/kg): ischemic stroke: 3; TIME OF STROKE ONSET ([6]; 30 mg/kg): 41.8 ± 6.9 days; NUMBER OF RATS After experiment ([6]; 30 mg/kg): 7
O=C1C[C@@H](c2ccccc2)Oc2cc(O)cc(O)c21 [(S)-pinocembrin, reference compound]	14.45 ± 1.13	0.101 ± 0.030	2.79 ± 0.42	15.39 ± 1.20	5.78 ± 0.06	13.07 ± 1.13	0.109 ± 0.082	2.65 ± 0.42	15.13 ± 3.06	5.49 ± 0.43	12.50 ± 2.11	0.120 ± 0.405	2.47 ± 0.15	14.90 ± 3.32	4.96 ± 1.26	26.7 ± 1.3	26.5 ± 4.1	79.95 ± 0.68	34.3 ± 6.9 days	7	effect on blood hemorheology indexes / blood viscosity [2]: no activity at all; Change of platelet aggregation ([3]; 30 mg/kg): 25.7 ± 5.4; effect on platelet aggregation ratio [3]: no activity; Brain water content ([4]; 10 mg/kg): 79.75 ± 0.81; Brain water content ([4]; 30 mg/kg): 79.67 ± 0.73; effect on survival ratio after stroke (treatment) [6]: no significant activity; CAUSES OF DEATH: ischemic stroke (number of rats) ([6]; 3 mg/kg): ischemic stroke: 3; CAUSES OF DEATH: hemorrhagic stroke (number of rats) ([6]; 10 mg/kg): hemorrhagic stroke: 2; CAUSES OF DEATH: ischemic stroke (number of rats) ([6]; 10 mg/kg): ischemic stroke: 2; TIME OF STROKE ONSET ([6]; 10 mg/kg): 37.6 ± 7.3 days; NUMBER OF RATS After experiment ([6]; 10 mg/kg): 6; CAUSES OF DEATH: ischemic stroke (number of rats) ([6]; 30 mg/kg): ischemic stroke: 3; TIME OF STROKE ONSET ([6]; 30 mg/kg): 41.5 ± 5.8 days; NUMBER OF RATS After experiment ([6]; 30 mg/kg): 7; effect on time of stroke onset (prophylaxis) [6]: no activity
COCCOC(=O)C1=C(C)NC(C)=C(C(=O)OC(C)C)C1c1cccc([N+](=O)[O-])c1 (stereo not shown) [Nimodipine, reference compound]	8.69 ± 1.01	0.213 ± 0.03	1.98 ± 0.29	11.84 ± 2.44	4.64 ± 0.92											20.1 ± 2.8		78.82 ± 0.58	41.6 ± 12.8 days	10	score of neurological symptoms after stroke onset ([1]; 3 mg/kg, after 6 days): below 2.2

Reference: US20110245334A1, “USE OF RACEMATES OF PINOCEMBRIN IN PREPARING MEDICAMENTS FOR TREATING STROKE” (CSPC Zhonggi Pharmaceutical Technology (Shijiazhuang) Co. …, priority 2008, published 2011)
